# Assay results published in a collection of fitness landscapes (doi:10.1016/j.celrep.2020.107928).
# The full ranking holds about 81,000 sequences; the median of “one-hybrid fitness for binding NBS DNA” is about -0.1, and the highest 2% start at about 0.36. The list shows a part of the results.
# B1: Caulobacter ParB omega fusion; a variant is named by its letters at X, in order, B8GW30 (parent)
# chain: MESVVVGEPGMSEGRRGLGRGLSALLGEVDAAPAQAPGEQLGGSREAPIEILQRNPDQPRRTFREEDLEDLSNSIREKGVLQPILVRPSPDTAGEYQIVAGERAWRAAQRAGLKTVPIMVRELDDLAVLEIGIIENVQRADLNVLEEALSYKVLMEKFERTQENIAQTIGKSXSHVANXMRLLXLPDEVQSYLVSGELTAXHARAIAAAADPVALAKQIIEGGLSVRETEALARKAPNLSAGKSKGGRPPRVKDTDTQALESDLSSVLGLDVSIDHRGSTGTLTITYATLEQLDDLCNRLTRGI
# Variants of: B1
# Test: one-hybrid fitness for binding NBS DNA (the Noc-binding site; scaled: cognate 1, non-cognate 0); higher = stronger binding
# Settings: with NBS DNA site
# Procedure, shortened: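 On M9-minus-histidine containing 0.1 mM IPTG and 5 mM 3-AT, E. coli USO cells with a HIS3 reporter, site 19 bp from the promoter, grew 48 hours at 37°C to select Caulobacter ParB libraries randomised at four specificity codons. Plasmids from before and after were Illumina-sequenced, with three replicate libraries pooled and variants under 10 reads left out. Fitness is the log change in variant-to-wild-type read ratio, rescaled against cognate and non-cognate.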
row,Variant,one-hybrid fitness for binding NBS DNA
1,HRVI,≤ 0.2
2,KTSF,≤ 0.2
3,EAKN,≤ 0.2
4,LPLR,≤ 0.2
5,LPER,≤ 0.2
6,RSGP,≤ 0.2
7,AIRM,≤ 0.2
8,MHWM,≤ 0.2
9,CQPN,≤ 0.2
10,YIVR,≤ 0.2
11,PRRQ,≤ 0.2
12,GCNR,≤ 0.2
13,RYIK,≤ 0.2
14,DKLP,≤ 0.2
15,IVDI,≤ 0.2
16,GALK,≤ 0.2
17,HSLI,≤ 0.2
18,ARVA,≤ 0.2
19,IETA,≤ 0.2
20,TGKA,≤ 0.2
21,CIQT,≤ 0.2
22,DRTV,≤ 0.2
23,NEHV,≤ 0.2
24,ADNM,≤ 0.2

row,Variant,one-hybrid fitness for binding NBS DNA
1,QHHM,≤ 0.2
2,RSMS,0.351
3,QLNY,≤ 0.2
4,HTYA,≤ 0.2
5,TMWT,≤ 0.2
6,VFIG,≤ 0.2
7,PQRT,≤ 0.2
8,SHHF,≤ 0.2
9,IGRC,≤ 0.2
10,FPAH,≤ 0.2
11,PKAR,≤ 0.2
12,TSGR,≤ 0.2
13,SVCY,≤ 0.2
14,QEEL,≤ 0.2
15,GQQI,≤ 0.2
16,HVRF,≤ 0.2
17,HLIY,≤ 0.2
18,YVTA,≤ 0.2
19,FRIL,≤ 0.2
20,HSTC,≤ 0.2
21,AAHS,≤ 0.2
22,LHQT,≤ 0.2
23,DWDS,≤ 0.2
24,ISLG,≤ 0.2

row,Variant,one-hybrid fitness for binding NBS DNA
1,PWME,≤ 0.2
2,VKTR,≤ 0.2
3,AQTS,≤ 0.2
4,VEIS,≤ 0.2
5,RWDW,≤ 0.2
6,QGSD,≤ 0.2
7,HRYA,≤ 0.2
8,HYLS,≤ 0.2
9,PSFG,≤ 0.2
10,VLSY,≤ 0.2
11,MSTV,≤ 0.2
12,PRMA,≤ 0.2
13,RLHD,≤ 0.2
14,FSEG,≤ 0.2
15,TRKD,≤ 0.2
16,AQSI,≤ 0.2
17,VWPF,≤ 0.2
18,TICW,≤ 0.2
19,RVFR,0.34
20,QVQS,≤ 0.2
21,MLFL,≤ 0.2
22,KYPR,≤ 0.2
23,FPAQ,≤ 0.2
24,EMSE,≤ 0.2

row,Variant,one-hybrid fitness for binding NBS DNA
1,VTVW,≤ 0.2
2,TAIL,≤ 0.2
3,NRET,≤ 0.2
4,QLQE,≤ 0.2
5,IAAR,≤ 0.2
6,PAQI,≤ 0.2
7,VRIG,≤ 0.2
8,TWMC,≤ 0.2
9,EANS,≤ 0.2
10,SCAT,≤ 0.2
11,HEYR,≤ 0.2
12,TPND,≤ 0.2
13,QAHW,≤ 0.2
14,GDCR,≤ 0.2
15,YTIS,≤ 0.2
16,ALLA,≤ 0.2
17,QDRR,0.275
18,CPMK,≤ 0.2
19,TIRQ,≤ 0.2
20,SFSI,≤ 0.2
21,QMKC,0.383
22,QHSD,≤ 0.2
23,PTPN,≤ 0.2
24,RNGH,≤ 0.2

row,Variant,one-hybrid fitness for binding NBS DNA
1,AHHN,≤ 0.2
2,TPLQ,≤ 0.2
3,NVSI,≤ 0.2
4,PCQI,≤ 0.2
5,QLSR,0.464
6,TCKG,≤ 0.2
7,QTII,≤ 0.2
8,LLAD,≤ 0.2
9,LETR,≤ 0.2
10,RYNK,≤ 0.2
11,GLQR,≤ 0.2
12,KPDG,≤ 0.2
13,VGTC,≤ 0.2
14,VYTN,≤ 0.2
15,QMAW,≤ 0.2
16,AQPD,≤ 0.2
17,ACTR,≤ 0.2
18,VPLR,≤ 0.2
19,QMPM,≤ 0.2
20,HMLH,≤ 0.2
21,RSSH,≤ 0.2
22,KPKA,≤ 0.2
23,GYEC,≤ 0.2
24,CNTI,≤ 0.2

row,Variant,one-hybrid fitness for binding NBS DNA
1,RTHP,≤ 0.2
2,LTHV,≤ 0.2
3,HPMG,≤ 0.2
4,TYEK,≤ 0.2
5,DLAL,≤ 0.2
6,DIHG,≤ 0.2
7,YMYT,≤ 0.2
8,NNYA,≤ 0.2
9,WMKT,≤ 0.2
10,QRRH,0.779
11,RFTW,≤ 0.2
12,QVRD,≤ 0.2
13,QTYD,≤ 0.2
14,IGGV,≤ 0.2
15,TKNS,≤ 0.2
16,GSCG,≤ 0.2
17,SYKW,≤ 0.2
18,SLRP,≤ 0.2
19,DAKK,≤ 0.2
20,TVLM,≤ 0.2
21,TRWD,≤ 0.2
22,PPEV,≤ 0.2
23,VAPF,≤ 0.2
24,FRVT,≤ 0.2

row,Variant,one-hybrid fitness for binding NBS DNA
1,NQFM,≤ 0.2
2,DRWE,≤ 0.2
3,QHPD,≤ 0.2
4,TLPA,≤ 0.2
5,KKPV,≤ 0.2
6,LARY,≤ 0.2
7,EYRT,≤ 0.2
8,GVNG,≤ 0.2
9,PKWC,≤ 0.2
10,YTKT,≤ 0.2
11,IKPV,≤ 0.2
12,QPVC,≤ 0.2
13,WSVT,≤ 0.2
14,TTDI,≤ 0.2
15,RYDV,≤ 0.2
16,LYKW,≤ 0.2
17,SLHN,≤ 0.2
18,YHDS,≤ 0.2
19,CHIP,≤ 0.2
20,PWIN,≤ 0.2
21,HKCR,≤ 0.2
22,VGRC,≤ 0.2
23,LRVL,≤ 0.2
24,KCAW,≤ 0.2

row,Variant,one-hybrid fitness for binding NBS DNA
1,WQCR,≤ 0.2
2,RFCC,≤ 0.2
3,LGIE,≤ 0.2
4,RGPN,≤ 0.2
5,NGST,≤ 0.2
6,KVNS,≤ 0.2
7,KFPL,≤ 0.2
8,PWSF,≤ 0.2
9,FTNG,≤ 0.2
10,SKMI,≤ 0.2
11,PVRW,≤ 0.2
12,YLGP,≤ 0.2
13,LMVT,≤ 0.2
14,TDSC,≤ 0.2
15,CWSR,≤ 0.2
16,RFAH,≤ 0.2
17,RCMM,≤ 0.2
18,QVFS,≤ 0.2
19,ACCY,≤ 0.2
20,RKYV,≤ 0.2
21,SRCS,≤ 0.2
22,TCNE,≤ 0.2
23,KHHG,≤ 0.2
24,RWAS,≤ 0.2

row,Variant,one-hybrid fitness for binding NBS DNA
1,KTVR,≤ 0.2
2,LFPK,≤ 0.2
3,RLWM,≤ 0.2
4,GVNS,≤ 0.2
5,HDTK,≤ 0.2
6,TRVD,≤ 0.2
7,CKVG,≤ 0.2
8,KAIL,≤ 0.2
9,VLAL,≤ 0.2
10,WTWG,≤ 0.2
11,EVGG,≤ 0.2
12,SLMN,≤ 0.2
13,FNLS,≤ 0.2
14,TLMN,≤ 0.2
15,KVVC,≤ 0.2
16,MWKS,≤ 0.2
17,WTSV,≤ 0.2
18,DNHC,≤ 0.2
19,HVPG,≤ 0.2
20,WWRG,≤ 0.2
21,RRLT,0.761
22,CAYR,≤ 0.2
23,PMVV,≤ 0.2
24,CLGC,≤ 0.2

row,Variant,one-hybrid fitness for binding NBS DNA
1,DELW,≤ 0.2
2,LRRE,≤ 0.2
3,NPYA,≤ 0.2
4,YSIV,≤ 0.2
5,EQRE,≤ 0.2
6,IENI,≤ 0.2
7,SWTH,≤ 0.2
8,FHAL,≤ 0.2
9,SKET,≤ 0.2
10,VWNR,≤ 0.2
11,HKSF,≤ 0.2
12,RILY,≤ 0.2
13,AFTS,≤ 0.2
14,VHPS,≤ 0.2
15,EGSC,≤ 0.2
16,QVNK,≤ 0.2
17,HGHE,≤ 0.2
18,WYLS,≤ 0.2
19,NLYG,≤ 0.2
20,CETD,≤ 0.2
21,ENNV,≤ 0.2
22,PNSC,≤ 0.2
23,TVES,≤ 0.2
24,DDMT,≤ 0.2

row,Variant,one-hybrid fitness for binding NBS DNA
1,NCSR,≤ 0.2
2,TILE,≤ 0.2
3,QSQN,≤ 0.2
4,NSRY,≤ 0.2
5,STFI,≤ 0.2
6,ECLL,≤ 0.2
7,CQTN,≤ 0.2
8,KCIG,≤ 0.2
9,RAIE,≤ 0.2
10,ARNY,≤ 0.2
11,PYTH,≤ 0.2
12,CLPE,≤ 0.2
13,MEYD,≤ 0.2
14,SLIE,≤ 0.2
15,SRWR,≤ 0.2
16,FTGC,≤ 0.2
17,ISST,≤ 0.2
18,CRPS,≤ 0.2
19,PGTN,≤ 0.2
20,VEHR,≤ 0.2
21,YSMI,≤ 0.2
22,VYDV,≤ 0.2
23,SSEC,≤ 0.2
24,FGTR,≤ 0.2

row,Variant,one-hybrid fitness for binding NBS DNA
1,TYAQ,≤ 0.2
2,NSRD,≤ 0.2
3,WVNT,≤ 0.2
4,AWDD,≤ 0.2
5,SPEV,≤ 0.2
6,QVRH,0.332
7,YLLR,≤ 0.2
8,CCGG,≤ 0.2
9,VKAT,≤ 0.2
10,ISDS,≤ 0.2
11,RAEV,≤ 0.2
12,QKEG,≤ 0.2
13,PLYG,≤ 0.2
14,CPPV,≤ 0.2
15,SYIC,≤ 0.2
16,LNGV,≤ 0.2
17,AEQC,≤ 0.2
18,LRIT,≤ 0.2
19,DSHG,≤ 0.2
20,TVPD,≤ 0.2
21,RHHN,≤ 0.2
22,PCPA,≤ 0.2
23,QNRY,≤ 0.2
24,EITR,≤ 0.2

row,Variant,one-hybrid fitness for binding NBS DNA
1,KRFG,≤ 0.2
2,AKLS,≤ 0.2
3,TKQA,≤ 0.2
4,GWYA,≤ 0.2
5,MMST,≤ 0.2
6,KRNY,0.238
7,RFMQ,≤ 0.2
8,TFNL,≤ 0.2
9,GEVT,≤ 0.2
10,PYWS,≤ 0.2
11,MATT,≤ 0.2
12,LAPG,≤ 0.2
13,FGLR,≤ 0.2
14,RYIT,≤ 0.2
15,VEVA,≤ 0.2
16,NIRS,≤ 0.2
17,VEPG,≤ 0.2
18,YLRM,≤ 0.2
